Measurements from paper PMC4336329 (PLoS ONE, 2015).
The campaign covered roughly 310,000 compounds. About 14,000 (4.5%) showed an effect of 50% or more. Effects have a minus sign here. Some of the results follow.

target: human ether-à-go-go-related gene (hERG) potassium channel (human, UniProt Q12809); experiment: primary screen, population patch clamp on CHO cells stably expressing hERG
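Note: peak tail current of the secondary pulse compared with the same well before compound.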

Sequence of human ether-à-go-go-related gene (hERG) potassium channel (Q12809 whole entry, looked up): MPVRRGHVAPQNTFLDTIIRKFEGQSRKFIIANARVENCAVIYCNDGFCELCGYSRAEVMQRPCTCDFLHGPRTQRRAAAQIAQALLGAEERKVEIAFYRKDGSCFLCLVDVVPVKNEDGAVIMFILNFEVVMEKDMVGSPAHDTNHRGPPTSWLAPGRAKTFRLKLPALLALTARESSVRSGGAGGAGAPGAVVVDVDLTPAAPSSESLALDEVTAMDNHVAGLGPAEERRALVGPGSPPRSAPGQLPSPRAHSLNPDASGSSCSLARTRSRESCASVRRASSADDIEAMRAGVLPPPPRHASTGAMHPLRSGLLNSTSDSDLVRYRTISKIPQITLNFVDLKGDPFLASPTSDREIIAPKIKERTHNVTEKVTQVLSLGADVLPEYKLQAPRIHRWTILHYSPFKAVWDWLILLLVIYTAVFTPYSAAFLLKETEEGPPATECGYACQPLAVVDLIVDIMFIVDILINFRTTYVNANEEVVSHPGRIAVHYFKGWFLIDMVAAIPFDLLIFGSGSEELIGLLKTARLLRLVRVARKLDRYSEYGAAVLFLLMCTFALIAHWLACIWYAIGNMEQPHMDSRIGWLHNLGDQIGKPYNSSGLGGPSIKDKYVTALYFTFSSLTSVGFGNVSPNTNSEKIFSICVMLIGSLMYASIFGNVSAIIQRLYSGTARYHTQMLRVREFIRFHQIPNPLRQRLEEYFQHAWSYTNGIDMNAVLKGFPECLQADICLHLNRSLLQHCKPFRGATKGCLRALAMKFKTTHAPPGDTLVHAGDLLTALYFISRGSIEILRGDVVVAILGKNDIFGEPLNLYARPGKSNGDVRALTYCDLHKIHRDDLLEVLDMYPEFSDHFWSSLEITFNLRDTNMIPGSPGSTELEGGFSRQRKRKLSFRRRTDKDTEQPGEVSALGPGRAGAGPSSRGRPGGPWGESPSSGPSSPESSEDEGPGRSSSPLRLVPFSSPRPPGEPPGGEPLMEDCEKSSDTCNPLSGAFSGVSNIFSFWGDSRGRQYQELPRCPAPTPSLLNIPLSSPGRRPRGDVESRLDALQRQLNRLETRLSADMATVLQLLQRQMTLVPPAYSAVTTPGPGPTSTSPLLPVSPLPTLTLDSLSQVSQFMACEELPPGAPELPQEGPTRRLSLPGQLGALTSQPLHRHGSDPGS

Compound	hERG current change (%, negative = inhibition) at 10uM [%]
O=C(CN(Cc1ccccc1)S(=O)(=O)c1ccc2c(c1)OCCO2)N/N=C/c1cccc(Br)c1	-30
O=C(CN1CCN(C(=O)c2cncn2-c2ccc(F)cc2)CC1)Nc1ccccc1C(F)(F)F	-70
O=C(NCCCCc1ccccc1)C1CCCC1	-1.81
COc1cc(CN2CCN(c3ccc(C)cc3)CC2)cc([N+](=O)[O-])c1O	-15.1
Cc1cc(C)cc(N2CC(O)Cn3c2nc2c3c(=O)[nH]c(=O)n2C)c1 (centres unmarked)	9.32
Cn1cc(SCC(=O)NC2CCCCC2)c2ccccc21	3.8
COc1cccc(NC(=O)Nc2nnc(Cc3ccccc3F)s2)c1	19.7
CCc1nc(Nc2ccc3c(c2)OCO3)c2oc3ccccc3c2n1.Cl	8.76
O=C(CCNC(=O)c1ccc(Br)o1)NCc1ccccn1	2.79
Cc1ccccc1C(=O)Oc1cccc2c(O)cccc12	14.8
Cc1cc(NC(=O)C(=O)c2cn(C)c3ccccc23)no1	13.3
CCOC(=O)CNC(=O)CSc1nnc(Cn2cnc3ccccc32)n1C	-0.389
Cc1sc(NC(=O)c2ccco2)c(C(c2cccnc2)N2CCCC2)c1C (centres unmarked)	-8.45
O=C(CSC(=S)N1CCOCC1)c1cc2ccccc2oc1=O	1.25
CCOc1ccc(CN(C)C(=O)CNC(=O)c2ccc3ccccc3c2)cc1OC	-15.6
CCOC(=O)CCNC(=O)N1CCCC(C(=O)c2cccc(OC(C)C)c2)C1 (centres unmarked)	-10.3
COc1ccc(C2CCCN2CC(O)COc2ccccc2C(C)C)cc1 (centres unmarked)	-24.3
O=C(COC(=O)Cc1n[nH]c(=O)c2ccccc12)NNC(=O)c1ccc(Cl)cc1	-40.2
CCCCn1c2ccc(F)cc2c2nnc(NN)nc21	-44.9
COc1ccc(CCCc2nnc(SCc3nc4ccccc4c(=O)[nH]3)n2C)cc1	-27.4
COc1ccc(-n2nc(C(=O)NCC(=O)N3CCN(c4ccccn4)CC3)c3ccccc3c2=O)c(OC)c1	5.6
O=C(Nc1ccccc1F)c1cc(Cl)sc1Cl	14.7
O=c1oc(-c2ccccc2NS(=O)(=O)c2ccc3ccccc3c2)nc2ccccc12	22.9

Compound	hERG current change (%, negative = inhibition) at 10uM [%]
O=C(Nc1ccc(-c2cn3ccsc3n2)cc1)C1COc2ccccc2O1 (centres unmarked)	10.8
COc1ccccc1-c1c(C)nn2c(C)cc(C)nc12	-11.4
C/C(=C\C(=O)c1ccc(Cl)cc1)Nc1ccc(Br)cc1	7.21
COc1ccccc1NC(=O)C1=C(C)Nc2nnnn2C1c1cc(Br)ccc1OC (centres unmarked)	-0.22
O=C1CC(c2ccccc2)CC(O)=C1C=NCc1ccncc1 (centres unmarked)	-22.3
C/C(=N\NC(=O)c1csc(C)c1C)c1ccc(C)s1	-6.2
CC1(C)C2([N+](=O)[O-])CN3CC1([N+](=O)[O-])CN(C2)C3C(O)C(O)C(O)CO (centres unmarked)	29
O=C(NC1(Cc2ccccc2)CCN(CCCc2ccccc2)C1=O)c1ccccc1 (centres unmarked)	-10.5
CC1=NN(c2ccccc2)C(=O)/C1=C/c1c(O)[nH]c(=O)[nH]c1=O	7.84
Cn1c(NN=O)nc2ccccc21	15.7
COCCN1C(=O)c2cc(C(=O)Nc3ccc(C)c(F)c3)ccc2C1Nc1ccc(C)c(F)c1 (centres unmarked)	1.29
O=Nc1c2ccc[nH]c-2c2ccc([N+](=O)[O-])cc12	23.2
COc1ccc(/C=N/NC(=O)c2ccc(NC(=O)C3CCCCC3)cc2)cc1O	24.3
NC(=O)C1CCN(C2=C(NS(=O)(=O)c3ccccc3)C(=O)c3ccccc3C2=O)CC1	-13.9
N/C(=N\c1nc2c(c(=O)[nH]1)CCCC2)Nc1ccccc1Sc1ccccc1	2
Cc1oc2ccc(Br)cc2c(=O)c1-c1nn[nH]n1	3.71
Cc1cccc(C)c1NC(=O)c1c[nH]c2ccccc12	6.37
O=C1CC(N2CCN(c3ccc(F)cc3)CC2)C(=O)N1Cc1cccs1 (centres unmarked)	-42.5
COc1ccc(/C=C/c2nc(-c3ccccc3O)n(-c3ccccc3)n2)cc1	-2.17
CC(=O)NCCC(=O)Nc1cc(F)ccc1C	2.94
Cc1nnc(SCC(=O)NNC(=O)COc2ccc(Cl)cc2)n1C	9.95
Cc1noc(NC(=O)c2ccc(F)cc2)c1C#N	20.9
CC(=O)N1CCOc2ccc(S(=O)(=O)N3CCC(C(=O)Nc4ccc(C)c(C)c4)CC3)cc21	-6.48

Compound	hERG current change (%, negative = inhibition) at 10uM [%]
CCOc1cc(C2c3c(oc4cc(C)c(Cl)cc4c3=O)C(=O)N2Cc2ccco2)ccc1O (centres unmarked)	18.1
O=C(Cn1cc2c(n1)CCCC2)NCc1cccs1	2.94
CC(C)c1cc(C(=O)Nc2cccnc2)no1	-5.93
O=[N+]([O-])c1ccc(N2CCCC(C(F)(F)F)C2)c2ccncc12 (centres unmarked)	-24
Cc1cc(-c2nnc(CCC(=O)NCc3cc(F)cc(C(F)(F)F)c3)o2)no1	-1.8
COc1cc(O)c2c(=O)c3c(OC)c(O)ccc3oc2c1	3.58
CN(Cc1ccc(Cl)cc1)C(=O)CCl	33.9
COC(=O)c1sc(NC(=O)c2cccc([N+](=O)[O-])c2)c(C(N)=O)c1C	-3.53
C[n+]1c(-c2ccccc2)sc([S-])c1-c1ccccc1	-1.55
COc1cccc(/C=C/C(=O)OCC(=O)NCC2CCCCC2)c1OC	8.32
C/C(=N\NC(=O)Cn1c(-c2ccccn2)nc2ccccc21)c1cccc(O)c1	22.7
Clc1ccc(-n2ncc3c(NCc4cccs4)ncnc32)cc1	-1.42
C#CCSc1nnc(-c2sc3ccccc3c2Cl)o1	13.1
Cc1ccc(OCc2nc(-c3ccccc3)no2)cc1	13.3
CN(C)S(=O)(=O)c1cccc(COC(=O)c2ccc3c(c2)OCO3)c1	4.97
O=C(CNC(=O)c1cccs1)NC1=NCCS1	4.08
Cc1cc(C(=O)NCc2cccs2)c(C)o1	-4.28
O=C(NCc1ccco1)c1cccn2c(=O)c3c4c(sc3nc12)CCCC4	13.6
COc1ccc(OC)c(Nc2nc(-c3sc(N)nc3C)cs2)c1	-0.856
Cc1ccc(C)c(NC(=O)CN(C)C(=O)[C@@H](NC(=O)c2ccc(C(C)(C)C)cc2)C(C)C)c1	-16.5
CCC(C)C(NC(=O)C1CCC(=O)N1C(=O)OCc1ccccc1)C(=O)NC(Cc1ccccc1)C(N)=O (centres unmarked)	-18.2
CC(=O)C1(C)OC(N)=C(C#N)C(c2ccccc2)C1(C#N)C#N (centres unmarked)	-0.619
CN(c1ccccc1)S(=O)(=O)c1ccc(C(=O)Nc2nccs2)cc1	9.93

Compound	hERG current change (%, negative = inhibition) at 10uM [%]
CC(C)C(OC(=O)c1cccs1)C(=O)NCc1cccs1 (centres unmarked)	3.25
NC(=O)C1(C(N)=O)OC1c1ccc(Cl)cc1Cl (centres unmarked)	9.23
Cc1ccc(C)c(NC(=O)CSc2nnc(-c3ccccc3)n2N)c1	-6.88
Cc1ccc(CS(=O)Cc2ccc(C(=O)NCc3cccs3)o2)cc1 (centres unmarked)	1.68
O=C(NCCc1ccc(F)cc1)Nc1ccc2c(c1)OCO2	9.4
Cc1ccc(C2CC(C(F)(F)F)n3ncc(C(N)=O)c3N2)cc1 (centres unmarked)	-0.858
Cc1ccc(OCC(=O)Nc2ccc(CN3CCOCC3)cc2)cc1	-9.4
CCCn1nc(C(=O)Nc2ccc(N3CCOCC3)cc2)c2ccccc2c1=O	-17.6
Cc1ccc(COc2ccc(/C=N/NC(=O)c3nnn(-c4nonc4N)c3COc3ccc(F)cc3)cc2)cc1	6.65
CCn1cc(CN(C)S(=O)(=O)c2ccc3ccccc3c2)c(C)n1	-1.17
CC1CC(C)CN(c2ccc([N+](=O)[O-])nc2)C1 (centres unmarked)	19
CCc1cc[n+](/C(C(=S)Nc2cccc(C)c2)=C(/[O-])c2ccc(C)c([N+](=O)[O-])c2)cc1	-24.5
Cc1ccc(NC(=O)COc2cccc(/C=C3\SC(=S)N(CCC(=O)O)C3=O)c2)cc1Cl	3.99
COc1cnc(-c2ccccn2)nc1Oc1ccccc1	-72.8
S=C(NCc1ccccc1)N1CCn2cccc2C1c1ccncc1 (centres unmarked)	-8.44
Cc1ccccc1OCC1CN(CN2CCOCC2)C(=O)O1 (centres unmarked)	1
CCS(=O)(=O)c1nn2c(N)c(/C=C3/C=CC(=O)C(OC)=C3)c(=O)nc2s1	19.9
Cc1cc(C)c2c(SC(C)C)nc(N)nc2n1	-4.12
CCOC(=O)c1cnc2sc3c(n2c1=O)CCCC3	-9.95
COc1ccc(OCC(O)CON2C(=O)c3ccccc3C2=O)cc1 (centres unmarked)	-20.2
